In PMC4336329 (PLoS ONE, 2015):
Out of some 310,000 compounds screened, about 14,000 (4.5%) showed an effect of 50% or more. Effects have a minus sign here. Some of the results follow.

The compounds below were run against human ether-à-go-go-related gene (hERG) potassium channel (human, UniProt Q12809) (assay: primary screen, population patch clamp on CHO cells stably expressing hERG).
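Also: peak tail current of the secondary pulse compared with the same well before compound.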

Chain of human ether-à-go-go-related gene (hERG) potassium channel (Q12809 whole entry, looked up): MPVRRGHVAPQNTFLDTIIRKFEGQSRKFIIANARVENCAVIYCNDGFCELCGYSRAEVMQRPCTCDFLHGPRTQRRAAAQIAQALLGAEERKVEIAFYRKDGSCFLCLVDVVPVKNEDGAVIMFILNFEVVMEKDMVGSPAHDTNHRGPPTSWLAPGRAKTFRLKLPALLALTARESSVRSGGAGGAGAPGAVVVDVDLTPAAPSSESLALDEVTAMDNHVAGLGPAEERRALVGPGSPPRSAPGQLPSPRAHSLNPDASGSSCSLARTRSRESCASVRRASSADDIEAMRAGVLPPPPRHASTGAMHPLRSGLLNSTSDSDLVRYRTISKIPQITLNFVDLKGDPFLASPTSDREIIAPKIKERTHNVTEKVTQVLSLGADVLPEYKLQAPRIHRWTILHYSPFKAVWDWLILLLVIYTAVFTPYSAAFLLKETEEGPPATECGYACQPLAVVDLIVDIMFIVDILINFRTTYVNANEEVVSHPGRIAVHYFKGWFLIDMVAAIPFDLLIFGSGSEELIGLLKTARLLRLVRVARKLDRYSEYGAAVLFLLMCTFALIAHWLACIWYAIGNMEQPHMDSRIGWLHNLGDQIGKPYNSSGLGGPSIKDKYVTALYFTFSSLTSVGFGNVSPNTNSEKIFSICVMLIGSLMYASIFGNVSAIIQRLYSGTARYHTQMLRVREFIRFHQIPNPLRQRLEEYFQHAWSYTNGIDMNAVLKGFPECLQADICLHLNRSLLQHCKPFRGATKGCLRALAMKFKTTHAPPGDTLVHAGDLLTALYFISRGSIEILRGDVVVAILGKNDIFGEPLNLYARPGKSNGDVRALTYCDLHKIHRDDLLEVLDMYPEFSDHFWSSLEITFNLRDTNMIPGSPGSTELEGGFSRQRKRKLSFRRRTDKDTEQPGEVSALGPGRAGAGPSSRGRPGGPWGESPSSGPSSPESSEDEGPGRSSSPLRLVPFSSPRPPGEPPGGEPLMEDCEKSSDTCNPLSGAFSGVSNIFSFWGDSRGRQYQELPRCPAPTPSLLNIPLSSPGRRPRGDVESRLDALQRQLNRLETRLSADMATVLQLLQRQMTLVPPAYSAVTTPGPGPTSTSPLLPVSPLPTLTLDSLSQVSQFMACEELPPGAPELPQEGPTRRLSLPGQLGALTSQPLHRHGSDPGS

Structure (SMILES)	hERG current change (%, negative = inhibition) at 10uM [%]
CCCOc1ccc2c(c1)C(=NN=C(N)N)c1cc(OCCC)ccc1-2.Cl	24.2
COc1ccc(OC)c(NC(=O)CCCNC(=O)Cn2cnc3sc(C)c(C)c3c2=O)c1	7.6
CCN(CC(=O)Nc1c(F)cccc1F)C(=O)C1CCN(C(=O)c2ccc(Cl)cc2)CC1	-17.6
O=C(COn1nnc2ccc(C(F)(F)F)cc21)Nc1nnc(-c2ccccc2)o1	-3.51
Cc1ccccc1NS(=O)(=O)c1ccc(C(=O)N2CCCCCC2)cc1	-11.5
O=C(COC(=O)/C=C/c1ccccc1[N+](=O)[O-])Nc1ccc(OCc2ccccc2)cc1	17.2
COc1ccccc1N1CCN(S(=O)(=O)CCNC(=O)C2CCCC2)CC1	-11.9
CCCCCCN1C=CC=C/C1=C\C=C(C#N)C#N	-71.1
CCOCCCNC(=S)NCCNc1nc2c(C)cccc2cc1C#N	-23.3
COc1cc(C2=NC(CO)(CO)CO2)cc(OC)c1OC	11.6
O=C(NCCCN1CCCC1=O)c1cccc(S(=O)(=O)Nc2ccccc2Cl)c1	21
Clc1cnc2nc(SC/C=C/c3ccccc3)[nH]c2c1	22.2
CC1CCC2(CC1)NC(=O)N(CC(=O)Nc1ccc(F)cc1)C2=O (stereo not shown)	-0.443
COC(=O)c1ccc(NC(=O)c2ccccc2-c2ccccc2C(=O)O)cc1	5.69
O=C1CN=C(Nc2ccccc2Cl)N1c1ccccc1	4.93
CC(=O)Nc1ccc(S(=O)(=O)Nc2cccn(Cc3ccc(C)cc3)c2=O)cc1	-5.96
CS(=O)(=O)N(CC(=O)Nc1ccccc1Sc1ccccc1)c1ccc(F)cc1	-0.802
COc1cc2oc(=O)c3c(c2cc1OCC(=O)c1c(C)n(C)c2ccccc12)CCCC3	10.6
COc1ccc(NC(=S)NC23CN4CN(CN(C4)C2)C3)cc1	11.7
Cc1oc(-c2cccc(F)c2)nc1CN1CCCN(C(=O)c2ccco2)CC1	-74.7
O=C(Nc1ccccc1)Nc1ccccc1NS(=O)(=O)c1cccs1	14.9
Cc1ccc(-c2nc3sc4c(c3c(=O)n2N)CC(C)(C)OC4)cc1	23

Structure (SMILES)	hERG current change (%, negative = inhibition) at 10uM [%]
COc1ccc(OC(C)C(=O)N2CC(C)OC(C)C2)cc1 (stereo not shown)	3.1
Cc1cc(C)nc(SC/C=C/c2ccccc2)n1.Cl	17.2
COc1ccc(C(=O)SC2=NCCS2)cc1	6.21
CCOCCCNC(=O)C1(O)c2cc(Br)ccc2NC(=O)N1c1cccc(OC)c1 (stereo not shown)	14.2
C/C(=N\NC(=O)c1c(Cl)c(C)nn1C)c1ccc(NC(=O)COc2ccc(Cl)cc2C)cc1	6.86
COc1ccc2[nH]c(=O)c(CN(C(=O)c3ccccn3)C3CCCCC3)cc2c1	1.24
Cc1nc2ccc(NC(=S)NCCCO)cc2nc1C	15.2
Cc1ccc(C(=O)NC(=S)Nc2ccc3[nH]c(=O)[nH]c3c2)cc1	-17.4
CC(=O)O[C@@H]1/C=C/[C@](C)(O)C[C@@H](C)C/C=C/[C@H]2[C@H](O)C(C)=C(C)[C@H]3[C@H](Cc4ccccc4)NC(=O)[C@@]123	-15.4
O=C(COc1ccc2ccccc2c1)Nc1ccc(S(=O)(=O)N2CCCCCC2)cc1	11.3
COc1ccc(Cn2nnnc2C(C(C)C)N2CCN(c3ccccc3OC)CC2)cc1 (stereo not shown)	-26.5
Cn1cc(C(=O)c2cccc(Cl)c2Cl)cc1C(=O)O	10.2
CN(C)CCCn1c2c(c(SCC(=O)Nc3ccc4c(c3)OCO4)nc1=O)CCC2	-10.7
Cc1ccc(OCc2n[nH]c(=S)n2C2CCCCC2)cc1	21
Cc1nn(Cc2ccc(C(=O)NN)o2)c(C)c1Cl	10.1
CC(C)(C)OC(=O)N1CCC[C@H]1C(=O)NCC1CCC(C(=O)O)CC1 (stereo partly shown)	-6.17
Cc1cc(C)n2nc(C(=O)N/N=C/c3ccccc3Cl)nc2n1	-13.8
Cc1cccc(N=C2NN=C(c3ccccc3F)CS2)c1C	41.8
Cc1cc(NC(=O)c2ccc(Cl)cc2)n(CCC#N)n1	10.9
CCN(CC(=O)NCc1ccc(F)cc1)c1ccc(S(C)(=O)=O)cc1[N+](=O)[O-]	-28.8
C[C@]12C(=O)N(c3ccc(Cl)cc3)C(=O)N1[C@H]1c3ccccc3OC[C@@H]1[C@H]2c1ccccc1	16.6
CC1(C)Cc2ccccc2-c2nnc(-c3ccccc3)n21	-10.8

Structure (SMILES)	hERG current change (%, negative = inhibition) at 10uM [%]
CC(C(=O)Nc1ccc(O)cc1)c1cccc(C(=O)c2ccccc2)c1 (stereo not shown)	-4.06
COC(=O)CC1C(=O)NCCN1C(=O)Nc1cccc(Cl)c1 (stereo not shown)	19.1
O=C(NCCCN1CCOCC1)c1ccc(Br)cc1	-13.7
CC(OC(=O)/C=C/c1ccc2ccccc2n1)C(=O)Nc1ccc(S(N)(=O)=O)cc1 (stereo not shown)	19.1
CN1CCN(c2cc([N+](=O)[O-])ccc2Cl)CC1	-23.3
N#CCCN1CCN(S(=O)(=O)c2ccc(S(=O)(=O)NC3CCCC3)cc2)CC1	-9.4
Cc1ccc2nc3c(cc(C(=O)NC4CCCC4)c(=N)n3CCCn3ccnc3)c(=O)n2c1	-58.6
CCc1nonc1NC(=O)c1oc2cc(C)c(C)cc2c1C	23.3
CC(C)Cn1c([N+](=O)[O-])nc2c1c(=O)[nH]c(=O)n2C	9.84
O=C(OCC(=O)N1CCCC1=O)c1cccc(S(=O)(=O)N2CCOCC2)c1	9.22
COc1ccc(-c2cc(COc3ccccc3)on2)cc1	36.1
O=C(c1ccccc1[N+](=O)[O-])N1CCC(Cc2ccccc2)CC1	-19
O=C(CN1C(=O)c2ccccc2S1(=O)=O)NCc1ccccc1Cl	-4.09
C=CCNC(=O)c1onc(CSc2cccc(Cl)c2)c1C(=O)O	5.55
CC1(C)C2([N+](=O)[O-])CN(CCO)CC1([N+](=O)[O-])CN(CCO)C2	3.83
CCCOc1ccc(N2C(=O)CC(N(Cc3ccccc3)N=O)C2=O)cc1 (stereo not shown)	-8.69
Cc1occc1-c1nnc(SCC(=O)NC(=O)NC(C)C)n1N	11
CCN(CC(=O)Nc1ccc(NC(C)=O)cc1)C(=O)/C=C/c1cn(-c2ccccc2)nc1-c1ccc(F)cc1	5.58
CCC(CC)c1nnc(NS(=O)(=O)Cc2ccccc2)s1	16.9
CCCNS(=O)(=O)c1ccc(CCC(=O)NCc2ccco2)cc1	-10.5
CC1CC(=O)N(CC(=O)NCc2ccc(F)cc2)c2ccccc2S1(=O)=O (stereo not shown)	-1.35
CSc1ccccc1C(=O)NCc1ccccc1	11.1

Structure (SMILES)	hERG current change (%, negative = inhibition) at 10uM [%]
CCC(C(=O)Nc1ccccc1N1CCCC1)c1ccccc1 (stereo not shown)	-9.92
Cn1cc(SCC(=O)Nc2nccs2)c2ccccc21	7.51
CCCCn1nc2cc(C(=O)NCCc3ccc(C)cc3)ccc2c1OCC	-6
Cc1cc(NC(=O)CSc2nccn2-c2ccc(F)cc2)no1	-2.24
CC(=O)Nc1ccc(C(=O)NC2CCCC2)cc1	3.73
CCCCNC(=O)Nc1nnc(-c2ccc(Cl)cc2)o1	-8.73
COCc1nnc(NC(=O)c2ccc(OC)cc2OC)s1	-2.26
Cl.O=C(c1ccc(Cl)cc1)N1CCN(CCc2ccccn2)CC1	-69
CN1c2ccccc2Oc2nnc(Cl)cc21	-5.87
COc1ccc(C(=O)NNC(=O)C(NC(=O)c2cc(OC)cc(OC)c2)C(C)C)cc1 (stereo not shown)	8.99
CCOC(=O)Nc1nnc(Cc2ccc(Cl)c(Cl)c2)s1	5.09
Cc1ccc(OCC(=O)NCCNC(=O)c2ccco2)cc1C	4.38
COc1ccccc1CN1CC(C(=O)NC2(c3ccccc3)CC2)CCC1=O (stereo not shown)	-9.07
CC1CCCCC1NC(=O)Cn1c(=O)oc2cc(S(=O)(=O)N3CCCC3)ccc21 (stereo not shown)	18.8
O=C(CN1C(=O)COc2ccccc21)NCc1ccc(C(=O)O)cc1	7.27
Cn1cnnc1SCC(=O)Nc1ncc(C(F)(F)F)cc1Cl	21.3
O=C(Nc1nncs1)c1ccccc1NS(=O)(=O)c1cccs1	12.9
O=C(COC(=O)/C=C/c1ccc(C(F)(F)F)cc1)NC1CCS(=O)(=O)C1 (stereo not shown)	19.5
O=[N+]([O-])c1ccccc1/C=N/Nc1nnc(-c2ccccc2)c(-c2ccccc2)n1	10.8
Oc1ccc(C23CCCC2C2(CCCC2)c2ccc(O)cc2O3)c(O)c1 (stereo not shown)	-8.11
COc1ccc(N(CC(=O)N2CCC(C)CC2)S(=O)(=O)c2c(C)nn(C)c2C)cc1	-15.9
Cc1nc(SCC(=O)Nc2cc(Cl)ccc2[N+](=O)[O-])nc(C)c1C	13.1
